# Measurements from PubChem BioAssay AID1768 (National Center for Advancing Translational Sciences (NCATS), 2009).
# Hit rate of the full screen: of about 270,000 compounds, about 620 (0.23%) were called active. The shares of active, inactive and inconclusive entries below differ from those in the screen. The call rests on the fitted dose curve; in most records, active means well fitted inhibition curve with a large enough effect in the polarisation, with a control signal flat (not every such curve was filed as active); inconclusive means small, poorly fitted or top-dose-only effect, or effect the other way, or a change in a side signal; inactive means no such curve, though single readings can be large or run the other way; the % refers to the polarisation. Potencies of inconclusive entries are doubtful fits and often do not repeat. A note “side channel” means that the fit belongs to a control or component signal, not to the main read-out.
# Target: Menin (Homo sapiens) (UniProt O00255)
# Experiment: qHTS Assay for Inhibitors Targeting the Menin-MLL Interaction in MLL Related Leukemias: Competition With Texas Red Labeled MLL-derived Mutant Peptide
# Details: fluorescence polarization; series mostly up to 61.6 µM
# Potency means the concentration at half of the fitted maximal effect; tags describe the fitted curve by direction and shape or compound fluorescence and quenching.
# Sequence of UniProt O00255 (O00255 whole entry, looked up): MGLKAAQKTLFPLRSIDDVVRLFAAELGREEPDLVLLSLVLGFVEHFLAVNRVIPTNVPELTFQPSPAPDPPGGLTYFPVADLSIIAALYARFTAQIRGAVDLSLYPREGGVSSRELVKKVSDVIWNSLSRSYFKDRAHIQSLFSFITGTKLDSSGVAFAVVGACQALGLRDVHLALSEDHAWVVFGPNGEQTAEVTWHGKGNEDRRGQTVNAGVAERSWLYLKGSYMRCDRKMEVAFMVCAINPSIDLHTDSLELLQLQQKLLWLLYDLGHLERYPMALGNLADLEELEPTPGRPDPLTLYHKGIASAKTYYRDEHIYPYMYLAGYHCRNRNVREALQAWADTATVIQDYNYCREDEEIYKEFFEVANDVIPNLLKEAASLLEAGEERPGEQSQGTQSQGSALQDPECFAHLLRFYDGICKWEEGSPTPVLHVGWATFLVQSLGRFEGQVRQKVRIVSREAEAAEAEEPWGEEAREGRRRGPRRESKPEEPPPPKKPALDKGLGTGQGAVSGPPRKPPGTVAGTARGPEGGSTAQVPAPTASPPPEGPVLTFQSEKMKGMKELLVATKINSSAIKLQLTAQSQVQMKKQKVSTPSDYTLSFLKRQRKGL
row,Compound,Potency
1,CC(=O)Oc1ccc(-c2ccc(C(=O)NCCc3ccc(S(N)(=O)=O)cc3)cc2)cc1,"inconclusive: 28.2 µM [fluorescent, side channel, single point]"
2,COc1ccccc1C(=O)Nc1ccc2c(c1)nc(CCNC(=O)c1ccco1)n2C,"inconclusive: 35.5 µM [fluorescent, side channel, single point]"
3,Cc1cc(C)n2nc(C(=O)N/N=C/c3ccc(Cl)cc3)nc2n1,"inconclusive: 14.1 µM [inhibitor, partial curve]"
4,CCc1ccc2oc(C(=O)Nc3cccnc3)c(C)c2c1,inactive
5,COc1ccc(-c2nc3cnc(Nc4ccccc4)nc3n(C[C@H]3CCCO3)c2=O)cc1,"inconclusive: 2.82 µM [quencher, side channel, full curve]"
6,CCn1c(C)c(C)c2cc(C(=O)N3CCN(c4ccccc4)CC3)ccc21,"inconclusive: 3.98 µM [fluorescent, side channel, full curve, poor fit]"
7,CCOc1ccc(N(CC(=O)NCc2ccccc2)S(=O)(=O)c2ccc(C)cc2)cc1,"inconclusive: 20 µM [fluorescent, side channel, partial curve]"
8,COc1ccccc1NS(=O)(=O)c1cc(NC(=O)c2ccncc2)ccc1N1CCCC1,"inconclusive: 15.8 µM [quencher, side channel, partial curve]"
9,Cc1[nH]c2ccccc2c1/C=C/C(=O)c1ccccc1,"inconclusive: 31.6 µM [quencher, side channel, single point]"
10,CCOC(=O)N1CCN(Cc2nc3cc([N+](=O)[O-])ccc3n2CC)CC1,"inconclusive: 39.8 µM [inhibitor, single point]"
11,CCOC(=O)Cn1nc(/C=C/c2ccc(C)cc2)ccc1=O,inactive
12,CCOc1cc(S(=O)(=O)n2nc(C)cc2C)ccc1Br,"inconclusive: 20 µM [fluorescent, side channel, single point]"
13,COc1cc(NC(=O)c2ccccc2F)ccc1NC(=O)c1cc2ccccc2o1,inactive
14,O=C(Nc1nc2ccc(F)cc2s1)c1cccc(S(=O)(=O)N2CCc3ccccc32)c1,"inconclusive: 5.01 µM [quencher, side channel, full curve]"
15,Cc1ccc(NC(=S)N/N=C/c2c(C)[nH]c3ccccc23)cc1,"inconclusive: 12.6 µM [quencher, side channel, partial curve]"
16,O=C(Nc1ccc2ccccc2c1)c1cnccn1,"inconclusive: 25.1 µM [quencher, side channel, partial curve]"
17,Cc1cc([N+](=O)[O-])nn1CC(=O)N1CCOCC1,"inconclusive: 25.1 µM [inhibitor, partial curve]"
18,Cc1cccc(NC(=O)CCS(=O)(=O)c2cccc3nonc23)c1C,"inconclusive: 39.8 µM [fluorescent, single point]"
19,CC(C)C[C@@H](NC(=O)[C@H](Cc1ccccc1)NC(=O)c1cnccn1)B(O)O,inactive

row,Compound,Potency
1,c1ccc([C@H]2CC3C[C@@H](c4ccccc4)N2O3)cc1,"inconclusive: 1 µM [inhibitor, partial curve]"
2,O=P(O)(O)CCP(=O)(c1ccccc1)c1ccccc1,"inconclusive: 6.31 µM [inhibitor, partial curve]"
3,CCCCCCC(=O)Nc1ccc(Cl)cn1,inactive
4,Cc1ccc(C(=O)N/N=c2\oc3ccccc3cc2C(N)=O)cc1,"inconclusive: 22.4 µM [fluorescent, side channel, single point]"
5,CCN(CC)c1ccc(NC(=S)NC(=O)c2cccs2)cc1,"inconclusive: 17.8 µM [quencher, side channel, partial curve]"
6,CC(NCc1cc(Br)ccc1OCC(N)=O)C12CC3CC(CC(C3)C1)C2 (stereo not drawn),"inconclusive: 11.2 µM [fluorescent, side channel, partial curve]"
7,Cc1cccc2nc(-c3ccco3)c(Nc3ccc4c(c3)OCCO4)n12,"inconclusive: 2.82 µM [inhibitor, partial curve]"
8,Cc1ccc(S(=O)(=O)Oc2ccc(/C=C(/NC(=O)c3ccccc3)C(=O)NCC(=O)O)cc2)cc1,"inconclusive: 22.4 µM [quencher, side channel, partial curve, poor fit]"
9,COc1cc(/C=C2\SC(=Nc3ccccc3)N(Cc3ccco3)C2=O)ccc1OC(C)C(=O)O (stereo not drawn),"inconclusive: 10 µM [quencher, side channel, partial curve]"
10,COc1ccc(OC)c(NC(=O)c2cc3oc4ccccc4c3cc2O)c1,"inconclusive: 3.98 µM [quencher, side channel, single point]"
11,CCOC(=O)c1cnc(-n2nc(C)cc2C)nc1Nc1ccc(C)cc1,"inconclusive: 2.24 µM [inhibitor, full curve, poor fit]"
12,CC1=Nc2ccccc2/C1=C/c1nc(-c2ccc(C)s2)oc1O,"inconclusive: 7.08 µM [quencher, full curve]"
13,Cc1ccccc1S(=O)(=O)NC1OC(=O)C(Oc2ccccc2)=C1Br (stereo not drawn),"inconclusive: 10 µM [inhibitor, full curve]"
14,Cc1ccc(Oc2nnc(-c3ccccc3)c3ccccc23)cc1,"inconclusive: 7.94 µM [inhibitor, full curve, poor fit]"
15,CCOc1ccc2c(c1)C(c1ccc(C)cc1)=NNC(c1ccc(OC)cc1)=N2,inactive
16,O=c1c2cc(Br)ccc2nc(-c2ccc(Cl)cc2)n1O,"inconclusive: 17.8 µM [quencher, side channel, partial curve]"
17,Cc1ccccc1OCC(O)CNC1CCC(NCC(O)COc2ccccc2C)CC1 (stereo not drawn),"inconclusive: 44.7 µM [inhibitor, single point]"
18,C=CCOC(=O)c1cc(-c2ccc(/C=C3\C(=O)NC(=O)C(C#N)=C3C)o2)ccc1Cl,"inconclusive: 20 µM [quencher, side channel, partial curve]"
19,Nc1nnc(-c2cc3c(ccc4ccccc43)oc2=O)s1,"inconclusive: 8.91 µM [quencher, side channel, full curve, poor fit]"
